Reference: PubChem BioAssay AID445 (National Center for Advancing Translational Sciences (NCATS), 2006)
The campaign covered roughly 110,000 compounds. About 40 (0.04%) were called active. This list was built around the results that the source calls inconclusive (neither active nor inactive); the mix of calls is not that of the screen. The call rests on the fitted dose curve; in most records, active means well fitted curve in the direction sought with a large enough effect in the signal ratio (not every such curve was filed as active); inconclusive means small, poorly fitted or top-dose-only effect, or a change in a side signal; inactive means flat fitted curve, though single readings scatter; the % refers to the signal ratio. Where the call is inconclusive, the potency comes from a doubtful curve fit.

Experiment: IkB Signaling
Conditions: ABC-DLBCL IkBa-CBG/CBR dual luciferase ratio (green luciferase fused to IkBa over red control in OCI-Ly3 lymphoma cells), 4 h; IkBa stabilization activation: at 57.1 µM (top of the series), scaled: untreated 0%, proteasome inhibitor 100% unless noted
In short: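 Curves were fitted separately to fusion (green), unfused (red) and ratio luminescence, then classed by r2, magnitude and activity. Cells: OCI-Ly3, 4 h compound plus doxycycline at 37C; 10 uM MG-132 defined full response.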
Potency means the concentration at half of the fitted maximal effect.

Row | Compound | IkBa stabilization activation | Potency
1 | CC(C)(C)NC(=O)c1cnn(-c2ccccc2)c1C1CCN(C(=O)OC(C)(C)C)CC1 | inconclusive: -1.74% [signal inhibitor] | 
2 | O=C(CCCc1nc2ccccc2s1)Nc1nccs1 | inconclusive: -0.0836% [signal inhibitor] | 
3 | O=C(NCc1ccccc1Cl)c1cc2c(s1)-c1ccccc1SC2 | inconclusive: 5.45% [signal inhibitor] | 
4 | COCCCN1C(=O)c2ccccc2C1C(=O)NC1CCCCCC1 (stereo unspecified) | inactive | 
5 | Cc1ccc(CSc2ccc(-c3cccs3)nn2)cc1 | inactive | 
6 | O=C(Cn1ncc2c3ccccc3n(Cc3ccccc3F)c2c1=O)NC1CCCCCC1 | inactive | 
7 | COc1ccc(S(=O)(=O)n2cnc3cc(C)c(C)cc32)cc1C | inconclusive: 4.33% [signal inhibitor] | 
8 | CN1CCN(C(=O)c2ccc3c(c2)N(Cc2c(F)cccc2Cl)C(=O)c2ccccc2S3)CC1 | inactive | 
9 | Cc1cc(OCC(=O)Nc2cc(-c3nc4ccccc4[nH]3)ccc2C)ccc1Cl | inconclusive: 0.166% [signal inhibitor] | 
10 | COc1cccc(NC(=O)CSc2nnc(-c3cc(C)n(-c4ccccc4)c3C)o2)c1 |  | inconclusive: 15.8 µM [signal inhibitor, partial curve]
11 | Cc1ccccc1C(=O)Nc1nnc(SCc2cc(=O)n3ccccc3n2)s1 | inconclusive: 1.9% [signal inhibitor] | 
12 | COc1ccccc1CNC(=O)COc1cc(=O)n(C)c2ccccc12 | inactive | 
13 | CCCCC(c1nnnn1Cc1ccco1)N1CCN(c2nc3ccccc3s2)CC1 (stereo unspecified) | inconclusive: 10.9% [signal inhibitor] | 
14 | CCCCC(CC)CNC(=O)c1ccc2c(=O)n(CCOC)c(=O)[nH]c2c1 (stereo unspecified) | inconclusive: -0.254% [signal inhibitor] | 
15 | COc1ccc(NC(=O)C2CCN(c3cc(C)nc(-c4ccccc4)n3)CC2)cc1 | inconclusive: 4.04% [signal inhibitor] | 
16 | CC(=O)c1cccc(S(=O)(=O)N2CCN(c3ccccc3F)CC2)c1 | inconclusive: 2.47% [signal inhibitor] | 
17 | Cc1cccc(C(=O)O)c1C[C@H]1NCC[C@H]2c3ccccc3N[C@@H]12 | inactive: 0.313% [at 11.4 µM, scaled: untreated 0%, proteasome inhibitor 100%] | 
18 | CCSc1ccccc1C(=O)Nc1cccnc1 | inactive | 
19 | O=C(COc1cccc2cccnc12)Nc1nccs1 |  | inconclusive: 25.1 µM [signal inhibitor, partial curve]
20 | CCCn1c(=NC(=O)c2ccco2)c(C(=O)OCC)cc2c(=O)n3ccccc3nc21 | inactive | 
21 | Cc1ccc(CN2CCC(CNC(=O)c3cc4ccc5cccnc5c4[nH]3)CC2)cc1 | inconclusive: -2.47% [signal inhibitor] | 
22 | CCOc1cc2sc(N3CCC(C(=O)Nc4ccccc4Cl)CC3)nc2cc1Br | inconclusive: 12.7% [signal inhibitor] | 
23 | CC(=O)c1cccc(NC(=O)c2cc(-c3ccc(C)cc3)on2)c1 | inactive | 
24 | Cc1ccc(-c2nn(CC(=O)NC3CCCC3)c3c2cnc2ccc(F)cc23)cc1C | inactive | 

Row | Compound | IkBa stabilization activation | Potency
25 | Cc1cc(S(=O)(=O)C(CNC(=O)COc2ccccc2)c2cccs2)ccc1F (stereo unspecified) | inconclusive: 1.73% [signal inhibitor] | 
26 | CCN(CC)C(=O)COc1ccc(-c2nnc(N3CCCCC3)c3ccccc23)cc1 | inconclusive: 0.534% [signal inhibitor] | 
27 | COc1ccc(NC(=O)CCN2CCN(CCO)CC2)c(OC)c1 | inactive | 
28 | COc1ccccc1Cn1cc(C(=O)c2ccc(Cl)cc2)c(=O)c2cc3c(cc21)OCCO3 | inconclusive: 0.48% [signal inhibitor] | 
29 | O=C(Nc1ccc(F)cc1F)c1ccc(-c2ccccc2)s1 |  | inconclusive: 25.1 µM [signal inhibitor, partial curve]
30 | Cc1ccc2nc(CSc3nnc(NC(=O)COc4ccccc4F)s3)cc(=O)n2c1 | inconclusive: 2.1% [signal inhibitor] | 
31 | COc1ccc(C)cc1N(CC(=O)N1CCC(C)CC1)S(=O)(=O)c1ccc(C)cc1 | inconclusive: 5.02% [signal inhibitor] | 
32 | Cc1cnc2c(c1SCC(=O)N(C)c1ccccc1)c(=O)n(C)c(=O)n2C | inactive | 
33 | Cn1c(=O)c2c(-c3ccccc3Br)n(C(C)(C)C)cc2n(C)c1=O | inconclusive: -1.75% [signal inhibitor] | 
34 | O=C(NC1CCCCC1)c1cc(-c2ccco2)on1 |  | inconclusive: 6.31 µM [signal inhibitor, partial curve]
35 | COc1ccc(-n2c(CCC(=O)O)ccc2-c2ccccc2)cc1 | inconclusive: 1.72% [signal inhibitor] | 
36 | CCC(=O)N1CCc2cc(Br)cc(S(=O)(=O)N3CCCC(C(=O)Nc4ccc(CC)cc4)C3)c21 (stereo unspecified) | inconclusive: 0.297% [signal inhibitor] | 
37 | CCOC(=O)c1cccc(NC(=O)Cc2ccc(NC(=O)N3CCCCc4ccccc43)cc2)c1 | inconclusive: 1.75% [signal inhibitor] | 
38 | COc1ccc(NS(=O)(=O)c2ccc(SC)cc2)cc1 | inconclusive: 2.5% [signal inhibitor] | 
39 | CCCNC(=O)Cc1cc(=O)[nH]c(=O)[nH]1 | inactive | 
40 | CCOC(=O)c1c(C)[nH]c(C)c1S(=O)(=O)N1CCCC(C(=O)N2CCN(c3ccc(Cl)cc3)CC2)C1 (stereo unspecified) | inconclusive: -1.45% [signal inhibitor] | 
41 | CCCCn1c(=O)[nH]c(=O)c2c1nc(COc1ccc(C#N)cc1)n2CCC | inactive | 
42 | O=C(Nc1ccccc1C(=O)OCc1cc(=O)n2c3c(sc2n1)CCCC3)c1ccc(Cl)cc1 |  | inconclusive: 20 µM [signal inhibitor]
43 | Cc1nnc(N2CCN(c3ccccc3)CC2)c2c1nnn2Cc1ccc(F)cc1 | inconclusive: 1.65% [signal inhibitor] | 
44 | CCOC(=O)c1[nH]c(C)c(CCC(=O)N2CCN(c3cc(Cl)ccc3C)CC2)c1C | inconclusive: 3.78% [signal inhibitor] | 
45 | O=C1Nc2c(c(=O)[nH]c(=O)n2-c2ccc(Cl)cc2)C1(NS(=O)(=O)c1ccccc1)C(F)(F)F (stereo unspecified) | inactive | 
46 | Cc1cc2c(cc1S(=O)(=O)CCC(=O)NCc1ccccc1)OCC(=O)N2 | inconclusive: 0.444% [signal inhibitor] | 
47 | CCN(CC)c1ccc(NC(=O)C(NS(=O)(=O)c2cccs2)C(C)C)c(C)c1 (stereo unspecified) | inconclusive: 2.05% [signal inhibitor] | 
48 | O=C(OCc1ccccc1F)c1ccc(-c2nnn(Cc3ccccc3)n2)cc1 | inactive | 

Row | Compound | IkBa stabilization activation | Potency
49 | CCn1nc(-c2ccccc2)c(-c2ccccc2)c(C(=O)Nc2ccccc2C(N)=O)c1=O | inconclusive: 0.5% [signal inhibitor] | 
50 | CCCCn1c(CN2CCN(c3cccc(Cl)c3)CC2)nc2c1c(=O)[nH]c(=O)n2C | inactive | 
51 | Cc1cccc(NC(=O)Cn2nc(C)c3nn(-c4ccc(Cl)cc4)c(C)c3c2=O)c1C | inactive | 
52 | Cc1cc(C)cc(NC(=O)CSCc2cc(=O)c3cc(Cl)ccc3[nH]2)c1 | inconclusive: 3.7% [signal inhibitor] | 
53 | CC1(C)CC(=O)c2cc(-c3nc(-c4ccc(Br)cc4)cs3)c(=O)n(-c3ccccc3)c2C1 | inconclusive: -1.66% [signal inhibitor] | 
54 | O=C(c1cnc(N2CCOCC2)c2ccccc12)N1CCN(c2ccc(F)cc2)CC1 | inactive | 
55 | Cc1cccc(-c2noc(CN(C(C)C)S(=O)(=O)c3ccc(Br)cc3)n2)c1 | inactive | 
56 | O=C(CN1CCN(c2ncc(C(F)(F)F)cc2Cl)CC1)Nc1ccc2c(c1)OCO2 | inconclusive: 3.22% [signal inhibitor] | 
57 | O=C1c2ccccc2-c2onc3c(Br)cc(NC4CCCCC4)c1c23 | inconclusive: 3.4% [signal inhibitor] | 
58 | Cc1cccc(N2C(=O)CSC23C(=O)N(CC(=O)NCCc2ccccc2)c2ccccc23)c1 (stereo unspecified) | inconclusive: 9.3% [signal inhibitor] | 
59 | COc1ccc(-c2cc(C(F)(F)F)n3nc(-c4ccc(Cl)cc4)cc3n2)cc1OC | inactive | 
60 | Nc1nc(CN2CCN(c3ccc(F)cc3)CC2)nc(N2CCCc3ccccc32)n1 | inconclusive: 2.61% [signal inhibitor] | 
61 | COc1cc2nc(NCc3ccccc3Cl)n3nc(-c4cccnc4)nc3c2cc1OC | inconclusive: 2.62% [signal inhibitor] | 
62 | COc1ccc(CC(=O)N2CC(=O)Nc3ccc(Br)cc3C2c2ccc(F)cc2)cc1OC (stereo unspecified) | inconclusive: 3.13% [signal inhibitor] | 
63 | CC(NC(=O)C1CCN(c2nnc(-n3cccc3)s2)CC1)C12CC3CC(CC(C3)C1)C2 (stereo unspecified) | inconclusive: 6.24% [signal inhibitor] | 
64 | COc1ccc(Cn2c(C(=O)O)c(CNC3CCC(C)CC3)c3ccc(C)cc32)cc1 (stereo unspecified) | inconclusive: 0.675% [signal inhibitor] | 
65 | COCCCNC(=O)CSc1nc2nc(C)c(Cc3ccccc3Cl)c(C)n2n1 | inactive | 
66 | COc1cccc(CNC(=O)c2cc(-c3cccs3)nc3ccccc23)c1 | inconclusive: 3.42% [signal inhibitor] | 
67 | COc1cccc(C(=O)Nc2ccc3nc(SCc4ccc(C)cc4)sc3c2)c1 | inactive | 
68 | Oc1c(Cl)cc(Cl)c(Cl)c1Cl | inconclusive: 1.21% [signal inhibitor] | 
69 | Cc1cccc(-n2c(SCC(=O)Nc3ccccc3Cl)nc3n[nH]c(C)c3c2=N)c1 | inconclusive: 0.717% [signal inhibitor] | 
70 | COc1cccc(Nc2cc(-c3ccccc3)nc(C)n2)c1 | inconclusive: 0.436% [signal inhibitor] | 
71 | CCN(CC)S(=O)(=O)c1ccc(C(=O)NCc2n[nH]c(=S)n2-c2ccccc2OC)cc1 |  | inconclusive: 0.631 µM [signal inhibitor, full curve]
